# Measured values reported in the supplement of paper PMC7726561.
# Whole data set: some 1,100 sequences, median “thermal melting temperature (Tm) of peptide-HLA complex” near 58, cut for the lowest 2% near 42. The list shows a part of the results.
# B1: unnamed (peptide)
# chain: RQLEEEGITFV
# B2: unnamed (peptide)
# chain: SLQEEIAKL
# B3: unnamed (peptide)
# chain: SLLPGNLVEKV
# B4: unnamed (peptide)
# chain: SLNHLLNYV
# B5: unnamed (peptide)
# chain: AMAHVAGFTV
# B6: unnamed (peptide)
# chain: GLLENIPRV
# B7: unnamed (peptide)
# chain: SLFPGKLEVV
# B8: unnamed (peptide)
# chain: SLKEIVINV
# B9: unnamed (peptide)
# chain: YLWPRGSPAL
# B10: unnamed (peptide)
# chain: FLPQKIIYL
# B11: unnamed (peptide)
# chain: VLADQEVRL
# B12: unnamed (peptide)
# chain: NVPDVYTQI
# B13: unnamed (peptide)
# chain: KQVEEIFNL
# B14: unnamed (peptide)
# chain: TLLDPNEKYLL
# B15: unnamed (peptide)
# chain: GLADKVYFL
# B16: unnamed (peptide)
# chain: ALSEKIVSV
# Target: HLA-A*02:01
# Assay: thermal melting temperature (Tm) of peptide-HLA complex; higher = more thermostable pHLA complex
# Conditions: C1R-A*02:01
# 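Note: cell lysates heated 10 min at 37–73 °C, remaining pHLA pulled down with pan-class I antibody, peptides quantified by DIA-MS versus 37 °C, Tm where half the complex is lost.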
row,Sequence,thermal melting temperature
1,B1,60.1 °C
2,B2,53.4 °C
3,B3,60.2 °C
4,B4,59.4 °C
5,B5,45.3 °C
6,B6,64.8 °C
7,B7,61.8 °C
8,B8,56.7 °C
9,B9,41.3 °C
10,B10,53.3 °C
11,B11,58.4 °C
12,B12,47.9 °C
13,B13,62.8 °C
14,B14,61.3 °C
15,B15,65.4 °C
16,B16,56.9 °C
